Reference: PubChem BioAssay (Tox21)
Values joined by “and” are separate entries in the source; they are usually repeats but may differ in a detail not shown here. Identical values can stand only once. Inconclusive means that the source gave no clear call. Such entries were picked first, then a sample of the others. A potency beside an inconclusive call is a rough fit, not a confirmed value. Active and inactive are the calls of the source. Calls come from the whole dose curve; as a rule, active = well fitted cell-killing curve with a large enough effect in the repeat runs; inconclusive = weak or mixed curves, or effect the other way; inactive = flat fitted curve, though single readings scatter.

Experiments:
[1] = cAMP Responsive Elements (CRE) small molecule antagonists, cell-based qHTS assay: qHTS cell viability counter screen (AID 2060913); conditions: CRE-bla HEK293T viability, CellTiter-Glo luminescence, 5 h; series mostly up to 92.4 µM; note: nearly all actives have a fitted effect of over 40% in size
Procedure, shortened: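 CRE-bla HEK293T cells were seeded in assay medium with 10% dialyzed FBS, incubated 18 hrs at 37 C, then exposed to compounds plus 0.25 uM final NKH477 for 3 hrs. Viability was read by CellTiter-Glo luminescence after 30 min, in the same wells.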

[2] = cAMP Responsive Elements (CRE) small molecule agonists, cell-based qHTS assay: qHTS cell viability counter screen (AID 2060914); conditions: CRE-bla HEK293T viability, CellTiter-Glo luminescence, 5 h; series mostly up to 92.4 µM;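 note: viability read after 3 h of compound exposure; nearly all actives have a fitted effect of over 50% in size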
Procedure, shortened: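 CRE-bla HEK 293T cells, plated 18 h at 37 °C, were exposed to compounds for 3 h at 37 °C/5% CO2. Viability was then measured in the same wells by CellTiter-Glo luminescence after 30 min at room temperature.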
Potency is the fitted concentration of half-maximal effect; tags give direction and shape of the fitted curve.

Compound | Potency [1] | Potency [2]
COc1ccccc1NC(=O)c1cc2ccccc2cc1O | inconclusive: 43.3 µM [cytotoxic, partial curve] | active: 30.6 µM
C1CCC(C(CC2CCCCN2)C2CCCCC2)CC1 (centres undefined) | inconclusive: 29.8 µM [cytotoxic, single point] | inconclusive: 0.298 µM [cytotoxic, single point]
CCCCCCCCCC[N+](C)(CCCCCCCCCC)CCC[Si](OC)(OC)OC | active: 27.3 µM | active: 24.3 µM
CCN=c1cc2oc3cc(NCC)c(C)cc3c(-c3ccccc3C(=O)OCC)c-2cc1C | active: 68.3 µM and active: 50.8 µM | active: 68.3 µM and active: 61.1 µM
CC(COc1ccccc1)N(CCCl)Cc1ccccc1 (centres undefined) | inconclusive: 57 µM [cytotoxic, partial curve, poor fit] | inconclusive: 2.46 µM [cytotoxic, single point] and inconclusive: 596 nM [cytotoxic, full curve, poor fit]
CSc1ccc2c(c1)N(CCC1CCCCN1C)c1ccccc1S2 (centres undefined) | active: 60.9 µM and inconclusive: 29.8 µM [cytotoxic, single point] | active: 60.9 µM and inconclusive: 5.96 µM [cytotoxic, full curve, poor fit]
CC(=O)c1ccc[nH]1 | inconclusive: 1.37 µM [cytotoxic, single point] | inconclusive: 0.969 µM [cytotoxic, single point]
